Results on 83 variants are retold here after the RNAGym collection of RNA variant scans (doi:10.1093/nar/gkz1192).

The source gives no read counts; variants with many changes may rest on few reads.

B1: CPEB3 Ribozyme (parent)
chain: UAACAGGGGGCCACAGCAGAAGCGUUCACGUCGCAGCCCCUGUCAGAUUCUGGUGAAUCUGCGAAUUCUGCUGUAUAUCUC

The data set covers variants of B1. Briefly: self-cleavage, relative activity (ratio to wild type); higher = more cleavage; in vitro, sequencing. Summed up: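 Relative activity was defined as the cleaved/total read fraction for a variant divided by the same fraction for the unmutated ribozyme. CPEB3 self-cleaving ribozyme libraries were made by rounds of error-prone PCR, barcoded, and transcribed in vitro with T7 RNA polymerase for 5 hours at 37°C, and cleavage ran through transcription plus a 15 min DNase I step before EDTA. Illumina sequencing of template-switched reverse transcripts gave the reads, and DNA sequencing mapped the barcodes. Averages come from three batches, using variants with at least 5 reads.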
Turning to U31C G55C A56G A64G, the self-cleavage turned out to be 0.22.

In the case of C32A U60A U67A A77U, the self-cleavage turned out to be 0.17.

C32G U43C U54C A57G G63A: the self-cleavage was determined as 0.08.

With U31C G61C U78C, the self-cleavage was found to be 0.19.

G33A U49C U67A U76A: the self-cleavage was determined as 0.13.

For the variant G33C U41A U51A A57G, the self-cleavage is 0.09.

Turning to G33A A47G G73C U76A, the self-cleavage came out at 0.09.

With U31G C34U U72A A77G, the self-cleavage came to 0.08.

As for G33C U41A G52U, the self-cleavage was 0.15.

In the case of C32A U41A A45U U51C U72C, the self-cleavage was determined as 0.17.

For the variant C32A A47G U48C U69A U72G A75G, the self-cleavage was determined as 0.05.

C32U A45G U51A U67C: the self-cleavage is 0.11.

Consider G33A A35U C39U A47G, for which the self-cleavage was 0.14.

Take U31C U41C A45U A47G A64U U74C A75G: the self-cleavage was 0.07.

Regarding G33A U49C A57U U66C U76A U80C, the self-cleavage came to 0.05.

In the case of U31C U51C G52U, the self-cleavage is 1.06.

U31C C50U U51C U74C A75G: the self-cleavage came out at 0.95.

As to U31C U54C U66C U69G U74A, the self-cleavage came out at 0.1.

For the variant C32U A47G U66A, the self-cleavage was 0.15.

Regarding U31C U41C U51A U54C, the self-cleavage was 0.75.

For G33A U69C U80C, the self-cleavage stood at 0.1.

In the case of U31C U69C G73A, the self-cleavage is 0.5.

Regarding C32U U43C A75U, the self-cleavage was found to be 0.17.

Consider G33A U80C C81U, for which the self-cleavage amounted to 0.12.

As to G33A U48C U66C, the self-cleavage is 0.15.

In the case of U31C C32G A65G U78C, the self-cleavage was 0.12.

As for U31C C40G U51C G52U, the self-cleavage was 0.38.

For C32U C37U A45U, the self-cleavage came to 0.14.

U31G U51C A75U: the self-cleavage amounted to 0.61.

Take U31C U60A U72A: the self-cleavage was found to be 0.12.

As to C32U A77G U78A, the self-cleavage was found to be 0.24.

In the case of U31C U41A U48A, the self-cleavage is 0.15.

C32A G33A A56U U58C U72C U76A: the self-cleavage stood at 0.07.

Turning to U31C U43C U66C U69A, the self-cleavage is 0.39.

Turning to G33A A35U A47G C68U, the self-cleavage amounted to 0.11.

Consider U31C U41A U72C U78C, for which the self-cleavage was determined as 0.15.

For U31C G63A U76C, the self-cleavage stood at 0.56.

For the variant U31C U49C A56U, the self-cleavage came to 0.15.

For U31C C34U A47G U60C, the self-cleavage was found to be 0.08.

In the case of U31C G33A C37U U51C, the self-cleavage came to 0.11.

For the variant C32A A35G U41C U54A U60C U72C, the self-cleavage is 0.13.

For C32A A35U G42C A57G, the self-cleavage was found to be 0.1.

Take G33A A35U U78C: the self-cleavage was 0.15.

In the case of G33A U43C U49C A57C U60C U74A A75G, the self-cleavage turned out to be 0.07.

On to U31C U48A A57G, for which the self-cleavage worked out at 0.21.

For the variant U31C U41G U54C U78G, the self-cleavage is 0.18.

Turning to U31C U54G U69C U76C, the self-cleavage amounted to 0.2.

In the case of U31C U41C A45U, the self-cleavage was 0.33.

As to U31C U41C A45G, the self-cleavage worked out at 0.4.

For the variant G33C A35U U54C, the self-cleavage was found to be 0.11.

Regarding C32U U51C C71A, the self-cleavage was 0.45.

With C32A G52U U58C, the self-cleavage came out at 0.18.

C32U U41C A64G: the self-cleavage was 0.14.

U31C C38U U41A A56G U60A: the self-cleavage worked out at 0.08.

For the variant C32U U69C U72A U76C, the self-cleavage was 0.06.

For the variant U31C U49C A56G U60A U80A, the self-cleavage worked out at 0.16.

Turning to G33A U60G U69C, the self-cleavage was 0.06.

Regarding U31C G46A A47G U54C U72A, the self-cleavage is 0.06.

On to C32U U54C A56U U72C, for which the self-cleavage was 0.14.

For the variant C32A U51C A56G A64U U69C, the self-cleavage stood at 0.04.

Turning to C32U U72A A75G, the self-cleavage came out at 0.19.

With U31C U41A A64G, the self-cleavage worked out at 0.29.

Turning to U31C G33A A35G U67A, the self-cleavage came to 0.09.

For the variant G33A U72C C81A, the self-cleavage came out at 0.32.

Take C32U C40A U58C U80A: the self-cleavage amounted to 0.22.

On to U31C G53C A75C U76C, for which the self-cleavage was 1.04.

Turning to G33A U43C A65G G73A U80C, the self-cleavage was found to be 0.09.

In the case of U31C C39A U43C A56G, the self-cleavage came out at 0.09.

As to C32U G33A A35G U43A, the self-cleavage was determined as 0.14.

Take G33A U54C U67C U72C U76A: the self-cleavage worked out at 0.05.

With U31G U41G A47G C59A A64G, the self-cleavage amounted to 0.09.

With U31G C44U U54G U72C, the self-cleavage amounted to 0.23.

Regarding U31C U48C U60C U74C A77G, the self-cleavage is 0.1.

U31C U51G G52U A56U U80C: the self-cleavage was determined as 0.33.

U31C U41C A77U: the self-cleavage was found to be 0.88.

In the case of U31C U66A U78C, the self-cleavage was 0.31.

Take U31C U67C U78C: the self-cleavage turned out to be 0.18.

With U31C U54G U72C, the self-cleavage was determined as 0.99.

For U31C G52U A64G U67A, the self-cleavage was 0.17.

As for U31C U48C U51C U67C U72A, the self-cleavage amounted to 0.09.

On to G33A G55U G63U U66C, for which the self-cleavage is 0.06.

With C32A A45G U54C U66C, the self-cleavage is 0.12.

Consider G33A U43A A64U U66C, for which the self-cleavage was 0.19.
